What all share (experiment): Primary Screen for Target Class Profiling of Small Molecule Inhibitors of Methyltransferases
Experiment [1] has as its target Glycine N-methyltransferase (Homo sapiens) (UniProt Q14749). Particulars: purified enzyme, MTase-Glo SAH luminescence; measured here: GNMT inhibition; at 40 µM; stronger effect = lower value. In a few lines: (§1)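 Each enzyme was reacted with SAM and its substrate, with compounds tested once at 40 uM; SAH formed was read by MTase-Glo luminescence.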
For experiment [2], the target named is Guanidinoacetate N-methyltransferase (Homo sapiens) (UniProt Q14353). Particulars: purified enzyme, MTase-Glo SAH luminescence; measured here: GAMT inhibition; at 40 µM; stronger effect = lower value. An outline of the steps: as §1
The target in experiment [3] is Histamine N-methyltransferase (Homo sapiens) (UniProt P50135). Particulars: purified enzyme, MTase-Glo SAH luminescence; measured here: HNMT inhibition; at 40 µM; stronger effect = lower value. An outline of the steps:
as §1

In experiment [4] the target is Nicotinamide N-methyltransferase (Homo sapiens) (UniProt P40261). Particulars: purified enzyme, MTase-Glo SAH luminescence; measured here: NNMT inhibition; at 40 µM; stronger effect = lower value. An outline of the steps: as §1
For experiment [5], the target named is Phenylethanolamine N-methyltransferase (Homo sapiens) (UniProt P11086). Particulars: purified enzyme, MTase-Glo SAH luminescence; measured here: PNMT inhibition; at 40 µM; stronger effect = lower value. In a few lines:
as §1

This is one part of the list. Further columns of the screen follow, without active or inactive calls.
On the % scale 0 is the no-effect control and ±100 the full control effect.

In the case of `C=C1CCC2(OC1)OC1CC3C4CC=C5CC(O)CC(O[C@@H]6OC[C@@H](O)[C@H](O)[C@H]6O)C5(C)C4CCC3(C)C1(O)C2C` (stereo partly specified), the activity change, negative = inhibition was 0% in experiment [1]; 14.9% in experiment [2]; 11.5% in experiment [3]; -1.77% in experiment [4]; 8.85% in experiment [5].
Taken in the same sequence, the figures for `CO[C@H]1CN(C2CCN(C(=O)C3CCN(C(C)=O)CC3)CC2)[C@H]1c1ccncc1` were -4.18%, -1.17%, -1.21%, -2.45% and -1.72%.
Taken in the same sequence, the figures for `CCOc1cccc(CN2CCc3c(c(CN(C(C)=O)c4ccccc4)nn3C)C2)c1O` were -8.13%, -4.05%, -2.52%, -7.94% and -8.7%.
On the same counts, the results for `CC1CCC(NC(=O)C2(C)Cn3c(cc4sccc43)C(=O)N2CCc2ccccc2)CC1` (stereo unspecified) are -1.46%, 4.33%, -0.086%, 2.06% and -4.6%.
For the compound `CCOC(=O)c1cc2n(n1)CC(C)(C(=O)NC1CCCCC1)N(c1ccccc1C)C2=O` (stereo unspecified), the activity change, negative = inhibition is 3.3% in experiment [1]; 0% in experiment [2]; -3.09% in experiment [3]; 11.2% in experiment [4]; 5.51% in experiment [5].
For `Cc1cccc(-c2n[nH]n3c2nc(=O)c2ccc(C(=O)NCCc4ccc(Cl)cc4)cc23)c1`, the activity change, negative = inhibition is -9.56% in experiment [1]; 1.9% in experiment [2]; -4.49% in experiment [3]; -9.95% in experiment [4]; -4.26% in experiment [5].
Taken in the same sequence, the figures for `COc1ccc(CCN2C(=O)c3cc4occc4n3CC2(C)C(=O)NC2CCCCC2)cc1OC` (stereo unspecified) were -1.67%, -3.4%, 6.1%, -33.6% and 1.36%.
On the same counts, the results for `C[C@@H]1O[C@@H](O[C@H]2[C@H](O[C@H]3[C@H](O)[C@@H](C(=O)O)O[C@@H](O[C@H]4CC[C@@]5(C)C(CC[C@]6(C)C5CC[C@]57OC[C@@]8(CCC(C)(C)CC85)[C@H](O)C[C@]76C)C4(C)C)[C@@H]3O[C@@H]3O[C@H](CO)[C@@H](O[C@@H]4OC[C@@H](O)[C@H](O)[C@H]4O)[C@H](O)[C@H]3O)O[C@H](CO)[C@H](O)[C@@H]2O)[C@H](O)[C@H](O)[C@H]1O` (stereo partly specified) are 1.67%, 5.86%, 6.23%, -4.19% and 9.26%.
Taken in the same sequence, the figures for `COC(=O)CC1OC(C)C2=C(O)c3c(O)cccc3C(=O)C23OC13` (stereo unspecified) were -78.1%, -24.1%, -2.31%, -21.9% and -70%.
Turning to `Cc1ccc(CNC(=O)Cn2nc3n(Cc4ccccc4)c(=O)c4ccccc4n3c2=O)cc1`, the activity change, negative = inhibition in experiment [1] worked out at 8.28%; in experiment [2], 2.17%; in experiment [3] it was 9.46%; in experiment [4] it was 0.706%; in experiment [5], 4.04%.
Taken in the same sequence, the figures for `CC(CN1C(=O)c2cc3ccccc3n2CC1(C)C(=O)NC1CCCCC1)c1ccccc1` (stereo unspecified) were 1.09%, 0%, -0.775%, 2.84% and -2.64%.
Taken in the same sequence, the figures for `CC(=O)c1cc(C(=O)NCc2c(C)ncc3c2CCNC3)[nH]n1` were -7.62%, -8.56%, -5.44%, -11.4% and -10.7%.
Taken in the same sequence, the figures for `CC(O)C(O)/C=C/C=C/C(=O)O[C@@H]1C=C(C(=O)O)[C@](O)(CO)[C@@]2(C)CCCC(C)(C)[C@H]12` (stereo partly specified) were -3.55%, -3.57%, 4.22%, -14.7% and -11.3%.
Take `CNC(=O)[C@@H]1CN(C(=O)c2ccc(F)c(Cl)c2)C[C@H]1COC`: the activity change, negative = inhibition in experiment [1] is -7.3%; in experiment [2], -6.5%; in experiment [3] it was -3.57%; in experiment [4], -8.67%; in experiment [5] it was -5.69%.
On the same counts, the results for `Cc1ccc(C)c(N2C(=O)c3cc(C(C)(C)C)nn3CC2(C)C(=O)NC2CCCCC2)c1` (stereo unspecified) are -4.44%, 2.61%, -2.38%, 0.501% and -0.509%.
On the same counts, the results for `CC(c1cccs1)N(C)Cc1ccncc1` (stereo unspecified) are -4.58%, -5.09%, -5.11%, -8.57% and 0.339%.
Taken in the same sequence, the figures for `CC1(CO)CC2C(O)C3=C(CC(C)(O)C2C1)C(=O)OC3` (stereo unspecified) were -3.16%, 0.588%, 5.43%, -11.9% and -6.21%.
Turning to `CC(=O)OCC1=CCC2C(C)(C)CCCC2(C)C12CCC(C)(CC(=O)O)O2` (stereo unspecified), the activity change, negative = inhibition was 2.88% in experiment [1]; 3.57% in experiment [2]; 8.42% in experiment [3]; -13.3% in experiment [4]; -2.4% in experiment [5].
Taken in the same sequence, the figures for `CCC(C)NC(=O)c1ccc2c(=O)n(C)c3nn(Cc4ccccc4F)c(=O)n3c2c1` (stereo unspecified) were 5.53%, 1.06%, 10.9%, -1.8% and 5.27%.
Taken in the same sequence, the figures for `CC1(C)C2CC(OC3OC(COC4OCC(O)(CO)C4O)C(O)C(O)C3O)C1(C)CC2O` (stereo unspecified) were -6.88%, -19.3%, -2.75%, -28% and -3.84%.
Taken in the same sequence, the figures for `NCCCC(=O)O` were 7.27%, 0.039%, 8.74%, -7.48% and 0.75%.
As to `Cc1ccc(-c2nn(C(C)(C)C)c3ncnc(N)c23)cc1`, the results for the activity change, negative = inhibition in experiment [2], in experiment [4] and in experiment [5] were -11.8%, -35.5% and -5.32%, respectively.
`Cn1c(=O)c2ccc(C(=O)NC3CCCCC3)cc2n2c(=O)n(CC(=O)Nc3ccc(F)cc3)nc12`: the activity change, negative = inhibition in experiment [1] is -4.07%; in experiment [2], -1.33%; in experiment [3], -1.43%; in experiment [4], -4.03%; in experiment [5], -6.58%.
As for `CCCCCCOC(=O)NC(=N)c1ccc(NCc2nc3cc(C(=O)N(CCC(=O)OCC)c4ccccn4)ccc3n2C)cc1`, the activity change, negative = inhibition in experiment [2] was 1.51%; in experiment [4], -29.4%; in experiment [5], -3.48%.
With `Cc1ccc(OCCC2CCN(C(=O)c3cc(CN4CCOCC4)on3)C2)cc1` (stereo unspecified), the activity change, negative = inhibition is -2.5% in experiment [1]; 0.486% in experiment [2]; -0.833% in experiment [3]; -3.16% in experiment [4]; 1.04% in experiment [5].
With `CC(C)Cn1c(=O)c2ccc(C(=O)NC3CCCC3)cc2n2c(=O)n(CC(=O)NC(C)(C)C)nc12`, the activity change, negative = inhibition is 3.97% in experiment [1]; 0% in experiment [2]; 5.88% in experiment [3]; 2.31% in experiment [4]; 3.22% in experiment [5].
With `Cc1cc(Nc2ncc3cc(-c4c(Cl)cccc4Cl)c(=O)n(C)c3n2)ccc1F`, the activity change, negative = inhibition in experiment [1] is 2.19%; in experiment [2] it was -22.5%; in experiment [3], 5.08%; in experiment [4], -32.5%; in experiment [5], -9.23%.
Taken in the same sequence, the figures for `CCN1CCC(N2CCCC(N3CCN(c4cccc(Cl)c4)CC3)C2)CC1` (stereo unspecified) were -1.79%, -0.4%, -1.56%, 1.41% and 0.589%.
On the same counts, the results for `CC(C)CCC[C@@H](C)[C@H]1CC[C@H]2[C@@H]3CC(=O)[C@H]4C[C@@H](O)CC[C@]4(C)[C@H]3CC[C@]12C` are -11.1%, -2.29%, 3.63%, -9.65% and 0.119%.

(Values after PubChem BioAssay AID1745853 (National Center for Advancing Translational Sciences (NCATS), 2022).)
